At least one read-out could not be matched to a standard name with certainty.
System: Vincristine-resistant P388 leukemia cells
Assay: Test of Enhancement of Therapeutic Effect in Mice with Vincristine-resistant P388 Leukemia
Format: in vivo, mouse (CDF1)
Details: i.p., with vincristine 100 μg/kg i.p.
[1] = 50 mg/kg, 1 × 5 (times/day × days)
[2] = 100 mg/kg, 1 × 5 (times/day × days)
[3] = 100 mg/kg, 1 × 10 (times/day × days)
[4] = 100 mg/kg, 2 × 5 (times/day × days)

Structure (SMILES)	T/V [1] [%]	T/V [2] [%]	further results
COC(=O)C1=C(C)N(CCCOc2ccc(F)cc2)C(C)=C(C(=O)OCCCN2CCN(c3ccccc3)CC2)C1c1ccc(OC)c(OC)c1 (centres unmarked) [Example 47, 1,4-dihydro-4-(3,4-dimethoxyphenyl)-2,6-dimethyl-1-[3-(4-fluorophenoxy)propyl]-3,5-pyridinedicarboxylic acid 3-methyl-5-[3-(4-phenylpiperazino)propyl]ester]	128	144	–
COC(=O)C1=C(C)N(CCCc2ccccc2)C(C)=C(C(=O)OCCCN2CCN(c3ccccc3)CC2)C1c1ccc(OC)c(OC)c1 (centres unmarked) [Example 7, 1,4-dihydro-4-(3,4-dimethoxyphenyl)-2,6-dimethyl-1-(3-phenylpropyl)-3,5-pyridinedicarboxylic acid 3-methyl-5-[3-(4-phenylpiperazino)propyl]ester]	126	144	–
COC(=O)C1=C(C)N(CCCOCc2ccccc2)C(C)=C(C(=O)OC)C1c1ccc(OC)c(OC)c1 [a), 1,4-dihydro-4-(3,4-dimethoxyphenyl)-2,6-dimethyl-1-(3-benzyloxypropyl)-3,5-pyridinedicarboxylic acid 3,5-dimethyl ester, reference compound]	107	104	–
CCOC(=O)N1CCN(CCCOC(=O)C2=C(C)N(CCCc3ccccc3)C(C)=C(C(=O)OC)C2c2ccc(OC)c(OC)c2)CC1 (centres unmarked) [Example 10, 1,4-dihydro-4-(3,4-dimethoxyphenyl)-2,6-dimethyl-1-(3-phenylpropyl)-3,5-pyridinedicarboxylic acid 3-methyl-5-[3-(4-carboethoxypiperazino)propyl]ester]	–	–	T/V [3]: 105%; T/V [4]: 128%
COC(=O)C1=C(C)N(CCCc2ccccc2)C(C)=C(C(=O)OCCCc2cccnc2)C1c1ccc(OC)c(OC)c1 (centres unmarked) [Example 19, 1,4-dihydro-4-(3,4-dimethoxyphenyl)-2,6-dimethyl-1-(3-phenylpropyl)-3,5-pyridinedicarboxylic acid 3-methyl-5-[3-(3-pyridyl)propyl]ester]	115	126	T/V (200 mg/kg, 1 × 5 (times/day × days)): 133%
COC(=O)C1=C(C)N(CCCc2ccccc2)C(C)=C(C(=O)OCCCN2CCN(C)CC2)C1c1ccc(OC)c(OC)c1 (centres unmarked) [Example 1, 1,4-dihydro-4-(3,4-dimethoxyphenyl)-2,6-dimethyl-1-(3-phenylpropyl)-3,5-pyridinedicarboxylic acid 3-methyl-5-[3-(4-methylpiperazino)propyl]ester]	–	–	T/V (50 mg/kg, 2 × 5 (times/day × days)): 114%; T/V (75 mg/kg, 2 × 5 (times/day × days)): 106%
COC(=O)C1=C(C)N(CCCc2ccccc2)C(C)=C(C(=O)OCC(O)CN2CCN(c3ccccc3)CC2)C1c1ccc(OC)c(OC)c1 (centres unmarked) [Example 28, 1,4-dihydro-4-(3,4-dimethoxyphenyl)-2,6-dimethyl-1-(3-phenylpropyl)-3,5-pyridinedicarboxylic acid 3-methyl-5-[3-(4-phenylpiperazino)propyl]ester]	120	–	–
COC(=O)C1=C(C)N(CCCc2ccccc2)C(C)=C(C(=O)OCCCN2CCN(c3ccccn3)CC2)C1c1ccc(OC)c(OC)c1 (centres unmarked) [Example 8, 1,4-dihydro-4-(3,4-dimethoxyphenyl)-2,6-dimethyl-1-(3-phenylpropyl)-3,5-pyridinedicarboxylic acid 3-methyl-5-[3-(4-(pyridin-2-yl)piperazino]propyl]ester]	–	–	T/V [3]: 121%; T/V [4]: 120%; T/V (200 mg/kg, 1 × 10 (times/day × days)): 145%
